Data published in patent US20260265352A1, “STABLE PHARMACEUTICAL FORMULATION COMPRISING ANTI-GREMLIN1 ANTIBODY” (SUZHOU TRANSCENTA THERAPEUTICS CO., LTD., priority 2022, published 2026).

Molecular target: T1, Human GREM1 (Homo sapiens, UniProt O60565)
T1 construct: His; purchased ACRO
T1 sequence (O60565 25-184): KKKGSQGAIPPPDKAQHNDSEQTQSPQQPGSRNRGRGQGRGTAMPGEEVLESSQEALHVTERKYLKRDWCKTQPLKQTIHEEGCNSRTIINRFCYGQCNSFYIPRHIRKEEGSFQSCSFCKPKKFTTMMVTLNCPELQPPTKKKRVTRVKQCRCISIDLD
Experiment: Binding affinity to human GREM1 through ELISA
Conditions: Table 17
Method: A transparent polystyrene culture plate (BEAVER) was coated with a high pH coating buffer containing 0.5 μg/ml hGREM1 (ACRO) and mouse gremlin (R&D) at 100 μl/well at 4° C. overnight. Then, the culture plate was washed once with PBS and 0.1% of Tween 20 (Sigma) on an automatic culture plate washer. 100 μl of a blocking solution consisting of PBS, 1% of BSA, 1% of standard goat serum and 0.50% of Tween 20 (Sigma) was added into each well for incubation at room temperature for 2 hours. Then, 100 μl of an antibody (started with 2 μg/ml and continuously diluted) in an antibody dilution buffer containing PBS, 1% of BSA, 1% of standard goat serum and 0.01% of Tween 20 was added into each well of the culture plate for incubation at room temperature for 1 hour. Then, the culture plate was washed with 200 μl of a solution containing PBS and 0.1% of Tween 20 for three times, and goat anti-mouse IgG-HRP (Abcam) at a ratio of 1:10000 was added at 100 μl/well for incubation at room temperature for 1 hour. Then, the culture plate was washed with a solution containing PBS and 0.1% of Tween 20 for 3 times. Finally, TMB (Pierce) was added into each well at 100 μl/well, and several minutes later, 50 μl of a termination solution was added into each well. The culture plate was read on a Multiscan FC microplate reader (Thermo Scientific) at 450 nM. […]

- EC50 of binding to hGremlin-his: 6.8 ng/mL
B1: Chimeric 14E3: Chimeric 14E3 (hIgG1) anti-GREM1 antibody (antibody, V domains shown)
VH: QIQLVQSGPELKKPGETVKISCKTSGSTFTTYGMAWMKQAPGKGLTWMGWINTLSGEPTYADDFKGRFAFSLKTSANTAYLQINNLKNEDAATYFCAREPMDYWGQGTSVIVSS
VL: DVVMTQTPLTLSITIGQPASISCKSSQSLLDSDGKTYLSWLLQRPDQSPKRLISLVSKLDSGVPDRITGSGSGTDFTLKISRVEAEDLGIYYCWQGAHFPLTFGAGTKLELK
